# The list shows a part of the results.
# T1: UNK ZnF1-3 (human, UniProt Q9C0B0 31-174)
# T1 sequence: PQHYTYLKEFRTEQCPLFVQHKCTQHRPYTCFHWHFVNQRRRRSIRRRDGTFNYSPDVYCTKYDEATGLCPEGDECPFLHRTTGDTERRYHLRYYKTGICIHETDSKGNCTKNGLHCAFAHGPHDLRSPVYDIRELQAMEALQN
# B1: 2814021_2814141_4101_CDS_ENSG00000167978_ENST00000301740|human|control|control (ssRNA)
# RNA: GGGAGUUCUACAGUCCGACGAUCGUCUUUGAAUACCAGUGAAGACUCAGGCCUAUCCUGUACUGGAAAGGGACUAAAUUUGUCUUUCUGUCUAGGAGGUGAUGCAGUAGCAUCCUCCUGAGGGGGUAAGGCCAUUUUCUCUUUCAACAGAGGAUUGAGCAUCA
# B2: chr14:66974463:66974464:+_ENSMUSG00000022044_ENSMUST00000074523|mus_hu|mus_mus_mus_hu_False|28_28 (ssRNA)
# RNA: GGGAGUUCUACAGUCCGACGAUCUUGUAGGACGACUUAUUCAGGGGAUCGGCCAGGAAGCAGGAGCAGAACAAGGACACCAGCGGGAGCUCCUUCAUCUUCUCUUUAUAGGCUGCAAGGGUCAUGUUUCUGGGAUCUGGUGGCCAACAGAGGAUUGAGCAUCA
# B3: chr10:62551973:62551974:+_ENSG00000170312_ENST00000395284|hu_mus|FALSE|FALSE (ssRNA)
# RNA: GGGAGUUCUACAGUCCGACGAUCUAGCAUUUUUGAGAGCAAAUCCAAGCCGUUCUCGUCCAGGUUCUUGACGUGGGAUGCGAGGCUCCCCGGCUUCCACUUGGGAAAGGUGUUCUUGUAGUCCUGCAGGGACUCGACUUCUGGCAACAGAGGAUUGAGCAUCA
# B4: 37474625_37474745_1063_CDS_ENSG00000003509_ENST00000002125|human|control|control (ssRNA)
# RNA: GGGAGUUCUACAGUCCGACGAUCUUUUAAAAAUGUGUGUUGUUUUAUUGGGCCCAGAGAGGCUACUUUUCCCUGUGCCAUUCUUCGCAAAUAACUGAAGUCCACAUCAGCUGUUAGAUCUGCUGUUCCUGGGGCAAUUAAGACCAACAGAGGAUUGAGCAUCA
# B5: 48218050_48221637_871_3pUTR_ENSMUSG00000028343_ENSMUST00000030028|mouse|control|control (ssRNA)
# RNA: GGGAGUUCUACAGUCCGACGAUCAUCCUUCAUGUGGAAGAGUAUGAGAAAAGGCAGUCCUUCUUCUGUCAAUUCCUCUCCAUUUUCAAAUGUUAUUUCUCGGACAAGAGGGACACAUUUAUCUUGAAUCCAGUUGUAAGUUACCAACAGAGGAUUGAGCAUCA
# B6: chr1:87185206:87185207:+_ENSG00000097033_ENST00000482504|hu_mus|FALSE|FALSE (ssRNA)
# RNA: GGGAGUUCUACAGUCCGACGAUCCGGGUUGUUUAUACGACUUGGUGCUUUUCUAUCCAGUUUCUCAUAAACAAAUUCUUCUAUCCUGGCAUUUGGAUUUGGCUGCAACAGCACUUCGGUCUGCUUCAUUAUCUUUUCUGUCCACAACAGAGGAUUGAGCAUCA
# B7: chr1:163112212:163112213:-_ENSG00000143248_ENST00000313961|hu_hu|hu_hu_hu_mus_False|8_8 (ssRNA)
# RNA: GGGAGUUCUACAGUCCGACGAUCUUUUAUUAUCAGUAAGAGUGAGUUACAUACUAGGCAAAGUAUUGGAUACAAUAAUCAGGAAACAAACACUAUUGGUCCAGAAUUUAAAACUUUAUGAGCGAAGGCUUACAAAUGGACUUACAACAGAGGAUUGAGCAUCA
# B8: chr12:8716970:8716971:+_ENSMUSG00000020594_ENSMUST00000111122|mus_hu|motif|central (ssRNA)
# RNA: GGGAGUUCUACAGUCCGACGAUCUGGAGAAGCCUUGCCUUUUUGAUCUCCUUUCUCAGGUCCAUCUGUUUCAGCAUCUCGGGUGCCAAAAUUUCCCUUCCUAAAUCGAGAAUCCAAUUUAUCAGCAGGAGAAGAACUUAAUACCAACAGAGGAUUGAGCAUCA
# B9: chr9:135984185:135984186:-_ENSG00000160271_ENST00000372050|hu_hu|FALSE|FALSE (ssRNA)
# RNA: GGGAGUUCUACAGUCCGACGAUCGUCUGAGCCUGGCAUGUUGAGCUGCACGUAGGCCACCAGCUGCUUGAGGCAGGGAAAGUCCGGAGGUUGACAGAAAUCCUCCGAGUACUGGUCCAGCCAGGUGCCCAGGAUGGAGGAGAUCAACAGAGGAUUGAGCAUCA
# B10: chr17:2203652:2203653:-_ENSG00000070366_ENST00000263073|hu_hu|FALSE|FALSE (ssRNA)
# RNA: GGGAGUUCUACAGUCCGACGAUCUCGUCCAGGCUGAUAGAUCUGCAGGUCGGGUUUCUUUGUUCUUUUGAUAAUUUUUAGACUACGAUCCUCUUGUCCAGCAGUCCUAGGAAAGGAUUCUUGUCCCCGAUUAUUUUCUGGGUCCAACAGAGGAUUGAGCAUCA
# B11: chr7:36506639:36506640:-_ENSMUSG00000043671_ENSMUST00000051377|mus_mus|motif|central (ssRNA)
# RNA: GGGAGUUCUACAGUCCGACGAUCGAACAGCACCAGUGCCUGCAGCAGCAUCAUGAACUGGUUAAAUUGCCAUGUCAGGCGGAAGAGAAAAGUUGAUACGAAAAUGGCAAGAAGUGUCAGCCUUUCAGAAAGAGGCUGUAAAUUCAACAGAGGAUUGAGCAUCA
# B12: chr14:65675725:65675726:-_ENSMUSG00000021978_ENSMUST00000022550|mus_mus|FALSE|FALSE (ssRNA)
# RNA: GGGAGUUCUACAGUCCGACGAUCGAUGGGGGGUUUCCGUGUGAUGUGGGAGACAAGGAAGUUCAUGGCGAUAUCCUCACAGUUGAUGUACUCGUCCACCAUGUCCCGGAUGGCCUGGGGCAUCACAUAAGAAUACAGGUAGGCCAACAGAGGAUUGAGCAUCA
# B13: chr1:130260868:130260869:-_ENSMUSG00000026356_ENSMUST00000027602|mus_hu|FALSE|FALSE (ssRNA)
# RNA: GGGAGUUCUACAGUCCGACGAUCAGUGAGUCGUUUGGGAUCACGAGGGAACAUGGAGGUCUGACGAACAUUAUGCAAUCCCAGAAACAGCAUAGUAACUCGUUCCAAUCCAAUGCCUCCACCAGCAUGAGGAGGGGCUCCAAACAACAGAGGAUUGAGCAUCA
# B14: chr17:74801258:74801259:+_ENSMUSG00000024069_ENSMUST00000024870|mus_mus|FALSE|FALSE (ssRNA)
# RNA: GGGAGUUCUACAGUCCGACGAUCGUUGAUUGCACCGAACAGAAGGAUCUUCCAGGACCUCCGGUCAGCUGCGACAAGUCUAAAUUCCUGUAGUAACUUUCCAAAAAAAGAUCUCUGUGGCUUUCGAAAGAGAUGAAUCGUCCCCAACAGAGGAUUGAGCAUCA
# B15: chr5:31409407:31409408:-_ENSG00000113360_ENST00000513349|hu_mus|FALSE|FALSE (ssRNA)
# RNA: GGGAGUUCUACAGUCCGACGAUCGAACUCCUUCAGCCGGGGAAAGAAGCAGACGUUCAUGAAAGUGUGGACAUAUUCCAGGUCCUUGUCGAUGUACAGCGCUGCGAUAAAUGAUUCCAAAAGGUCUGCCAAAGUCUUGGUUCUCAACAGAGGAUUGAGCAUCA
# B16: chr9:95013113:95013114:-_ENSG00000196305_ENST00000443024|hu_hu|hu_hu_hu_mus_False|48_88 (ssRNA)
# RNA: GGGAGUUCUACAGUCCGACGAUCCUCAGUCAGAAAGGGCGUGUAAGGAGCCAUAAGUCUGCACAGAGAAAGCAGGACACUGAACAGGGUUUCUAGGGCCAUGACACAGUCUUCCACCCCACUCUCACCCUUUAACCUCCUCCUCAACAGAGGAUUGAGCAUCA
# B17: chrX:71549400:71549401:+_ENSMUSG00000019087_ENSMUST00000019231|mus_hu|mus_mus_mus_hu_False|28_48 (ssRNA)
# RNA: GGGAGUUCUACAGUCCGACGAUCGCAGUAGGAAGAGGGAAGCUCUUCAGUCCAGUGCGCUGCAGGGUGGGAAAGCAACAACACGGAACCAAUACUCCCCUCAACCCUCUCAGGUGUACAGGGUCACACAAUCUGGGUCAAAGACAACAGAGGAUUGAGCAUCA
# B18: chr8:121872745:121872746:+_ENSMUSG00000031839_ENSMUST00000034300|mus_mus|FALSE|FALSE (ssRNA)
# RNA: GGGAGUUCUACAGUCCGACGAUCCUUUGUGGGGACAGUGACAUAGAUUGCCUUCUAAGUCAUCAAAACUGGCUUUGAGGCUAAGCCUCCAGACACCAGAAUCCUGAAUGUAAAUCUGUCUUCUUUAAUCAAUAAUAGAACUCACAACAGAGGAUUGAGCAUCA
# B19: chr3:179287964:179287965:+_ENSG00000136518_ENST00000429709|hu_hu|hu_hu_hu_mus_True|18_28 (ssRNA)
# RNA: GGGAGUUCUACAGUCCGACGAUCCUUGAGUGGUGAGAUGGCCUCCAUGUUCUCCCUGGGCACGCGGAGGGCAUUGGUGUCUAUGUAGUAGGUGGGCCCGCCCUGCUUGCCUUUAUCGCCAUCUAUUUCCAUCAUUGUACUUCCCAACAGAGGAUUGAGCAUCA
# B20: chr11:85347198:85347199:+_ENSG00000171204_ENST00000358867|hu_hu|FALSE|FALSE (ssRNA)
# RNA: GGGAGUUCUACAGUCCGACGAUCUUUCUCAAGUGUCUCUUCAAAUACUGCAUAAUGGUAUAGACCAUUUAAUAUUCCAAACAUAAUCUGAAAGACUAGAGGAAUCGCCAUUAAUUUCAUUUGUGUUUGACAAAGCGUCAUCCACAACAGAGGAUUGAGCAUCA
# B21: chrX:71549400:71549401:+_ENSMUSG00000019087_ENSMUST00000019231|mus_hu|mus_mus_mus_hu_False|8_18 (ssRNA)
# RNA: GGGAGUUCUACAGUCCGACGAUCGCAGUAGGAAGAGGGAAGCUCUUCAGUCCAGUGCGCUGCAGGGUGGGAAAGCAACAACACGGACACCGUCCCACCCUCAACCCCCCCACUGGCAUGUCACACAAUCUGGGUCAUCAAAGACAACAGAGGAUUGAGCAUCA
# B22: chr8:41367971:41367972:+_ENSG00000147533_ENST00000520817|hu_hu|FALSE|FALSE (ssRNA)
# RNA: GGGAGUUCUACAGUCCGACGAUCAAUAUACAGUAUUAUUCCUAUCAAAUUUUUUUCUCAUAAGUUAUAUUUAUAACAAAACUAUAAUUAAAAUAUUUUUUAUACCUGCUUAUUCCAUAUCCAGGGACACAGCGGGAACAUUUACAACAGAGGAUUGAGCAUCA
# Molecular target: T1, UNK ZnF1-3
# Test: nsRBNS (natural sequence RNA bind-n-seq); RBNS binding buffer (assumed for nsRBNS): 25 mM Tris pH 7.5, 150 mM KCl, 3 mM MgCl2, 0.01% Triton X-100, 500 ug/ml BSA, 20 U/ml SUPERase-In, 4 C; UNK is unkempt and MSI1 is Musashi-1; names of the RNAs are library labels; protein concentration not given here; high values mean tight binding
row,Binder,binding signal
1,B1,0.562 enrichment R
2,B2,2.44 enrichment R
3,B3,1.05 enrichment R
4,B4,1.51 enrichment R
5,B5,1.1 enrichment R
6,B6,0.339 enrichment R
7,B7,1.05 enrichment R
8,B8,1.02 enrichment R
9,B9,1.4 enrichment R
10,B10,0.687 enrichment R
11,B11,1.84 enrichment R
12,B12,0.999 enrichment R
13,B13,1.34 enrichment R
14,B14,0.948 enrichment R
15,B15,1.11 enrichment R
16,B16,0.65 enrichment R
17,B17,0.792 enrichment R
18,B18,1.06 enrichment R
19,B19,0.493 enrichment R
20,B20,0.837 enrichment R
21,B21,1.65 enrichment R
22,B22,0.915 enrichment R

# — PMC12136788
